According to the supplement of paper PMC11417369:
The other results are listed elsewhere or left out.

What follows are sequences tested on PfAP2-HC AP2 domain (GST-tagged) (assay: gcPBM binding intensity (ln(normalized median fluorescence intensity)); higher = stronger DNA binding).
Summary of the method: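 GST-fused DNA-binding domains of P. falciparum, expressed in E. coli, were applied at about 25 μg on average for 1 h to an Agilent 4 × 180k array of primer-extended double-stranded 36-bp intergenic genomic probes and negative controls. Binding intensity is the highest Masliner-normalised natural-log median intensity across replicate spots of either probe orientation, measured with Alexa488 anti-GST antibody and a 488 nm scan.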

Sequence | gcPBM binding intensity (ln)
CTAAATAACTTAAGGTGTACGTTTCCAATAAAAAAA [XGTACX_site1742] | 9.53
GTATATTAATAAACATGTACACAATTTATTTATATT [XGTACX_site1012] | 9.85
TTTTTTTTTTGAAGTGCATGTTACGATGAAAAAAAA [TGCATGCA_site64] | 9.33
TTTTTTTTTAAATGTTGTACATTATATTTGTGTATA [XGTACX_site8354] | 9.69
CGTATGTGCGGACATGCATGCAATATACAAGAAAAA [TGCATGCA_site145] | 9.66
TGTAGCCTGGAGAAGAGTACATAGTATCTGGTAGCT [XGTACX_site4943] | 9.43
TATTTTTTTACATATTGTACATAATATAAAACTTAC [XGTACX_site8273] | 9.74
TATATTTGGTTTCATTCATTTTTATAGAAATCTCAA [CACACA_negctrl_site1412] | 9.35
CACACGTATATATATACACACTAAAATACCCAGACA [CACACA_site6142] | 9.91
ATTTTTTCATATTCTACACACGTGAACAAATGTGTC [CACACA_site3007] | 10.1
AATATTTTGTTATTTATTTAATCTAATATTATGATA [GTGCAC_negctrl_site258] | 9.5
ATATAATAGAAGTGTACACACATATTTATGGGTGTA [CACACA_site5686] | 9.91
TTTTTAGTTAATTAAACACACAAAAAAAAAAATAAA [CACACA_site3930] | 9.57
ATAATATTGTGGTATACACACCTTACAAAAAGGTAC [CACACA_site5582] | 9.8
AATATTTTTATATATATACACACTTACATATATATA [CACACA_site3609] | 9.79
TTTTCTAAAAAAAGTTGTACATCTTATTTATATTAT [XGTACX_site295] | 9.63
AAAAAATAAAAAAATAAAAAATAAAAAATAAAAAAT [TGCATGCA_negctrl_site90] | 9.46
TATAAAAATAAATAAATAAATAAATAAATAAATAAA [TGCATGCA_negctrl_site310] | 9.47
ATGTAAGACAAAAAGGGTACATAATGCGTATGTATT [XGTACX_site4666] | 10

Sequence | gcPBM binding intensity (ln)
AAAAATTACCCATCCATACACACATATTTTTTTTAA [CACACA_site2190] | 9.95
GTATATAATTATATATGTACTAAATAAATATTTTTA [XGTACX_site6062] | 9.6
ATTAAAATTTGTTAAAGTACTTAATAAAAATTTTTC [XGTACX_site1959] | 9.26
TATAAATCTATAAATGCACACAAGGGAAGAAAAACG [CACACA_site2965] | 9.97
TATTATTCCAAGAAAAAAAAAAATAAAAAAAAAAAA [CACACA_negctrl_site1424] | 9.21
CAAACAATTAAACAAACACACATATACAAGTATATA [CACACA_site8639] | 10.2
AAAGAACAAATAAAACATAAAATAATATATATAGAT [CACACA_negctrl_site1764] | 10.1
TTTAAGATTTTGTAATGTACATATATACATATATAT [XGTACX_site399] | 9.75
AGGTGAATATTTTTTACACACATAAAAAAAATATAT [CACACA_site57] | 9.82
TATATATTATATATGTGTACTCACTAACAAAAATTA [XGTACX_site6285] | 9.52
AAATTATATAAAGGAACACACATTTTATTTTATTTT [CACACA_site1500] | 9.7
TATATTTTTATAATAACACACGATATATGTTTAGGA [CACACA_site1283] | 9.63
AATGACTACATAATAGTGCAATATTAAAGAAAATTA | 9.68
TGTATATCATAAGATGGTACACGTGTGTGCGTATGC [XGTACX_site2255] | 10
ATTCTTAAAAAAAAATGTACACATGAACAATATGTA [XGTACX_site362] | 9.52
AATCAAAATTCATTAACACACAATTTTAATATTCTT [CACACA_site5178] | 9.7
TTTTTTAAAATATGGACACACATATATATATATGTA [CACACA_site2784] | 9.5
TATTTTTATAAGAGCATGCACTGTTTAAAATGGTAT | 9.5
TTTTGATATAAAAAAAGTACATTAATAATATTAATT [XGTACX_site4248] | 9.33

Sequence | gcPBM binding intensity (ln)
CAGTATTCTTCTATATGTACTTATTTAAATATTCTT [XGTACX_site7555] | 9.8
TAAATAATAATAAATGTGCACAGGTATTAACAAAAA [GTGCAC_site9988] | 10
ATGATATGGATAAATACACACAATAAAATAATGTCT [CACACA_site6786] | 9.8
TTTATTTATTTATGTTGTACAAGTTTATACTGGAAT [XGTACX_site6479] | 9.63
TTTTAACAAAACAAAACAAAATAATATAAAGATAAC [TGCATGCA_negctrl_site154] | 9.77
TTTTTTTTTTTTTTTTTTTGATTCTTATAAAAATTT [GTGCAC_negctrl_site240] | 8.56
AGGTCACATTTGTCCTCACACATAGATAAATATATA [CACACA_site5460] | 9.65
AATTAGCATTAAAAATGTACAAAAGAAAAAAATATA [XGTACX_site3816] | 9.83
GTCAAAAATAATATATGTACTTATAATAGATAAATG [XGTACX_site7755] | 9.6
ATAATTTGATCAATTTTTCATTTTTCATTTTTTTAA [CACACA_negctrl_site1252] | 9.56
TTAACATATGACATTTTTTCACCCTTCCTTTATTTT [CACACA_negctrl_site1192] | 9.8
ATAAAATCATTCAATGGTACAGAAATACAAAATGTA [XGTACX_site6739] | 9.76
TATGTATAAAAATATTGTACATATTATATATATATA [XGTACX_site2947] | 9.42
TAAAATTTAAAAAGGTGTACACTATAAATTAAAATA [XGTACX_site2081] | 9.71
AGAAAGAATGAAAAATGTACATATATGTAATAGCTA [XGTACX_site364] | 9.97
TTCTTTCTGTTTTATTTATAATAATTTATGATAAAA [CACACA_negctrl_site766] | 9.6
TGTTTTTAATTTCGCACACACCTTGTGGAAAAAAAA [CACACA_site4482] | 9.85
ATACGTGGGCAAAAAGTGCATATAATCAAAAAAAAA [GTGCAC_site9961] | 9.69
